Measured values published in the supplement of paper PMC11417369.
Some of the results follow.

Each sequence was assayed on PfHDP1 homeodomain (GST-tagged) (assay: gcPBM binding intensity (ln(normalized median fluorescence intensity)); higher = stronger DNA binding).
How it was run: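 Plasmodium falciparum DNA-binding domains carrying a GST tag were expressed in E. coli and applied for 1 h, at about 25 μg on average, to an Agilent 4 × 180k array. The array held primer-extended double-stranded 36-bp intergenic genomic probes together with negative controls, and binding took place in 1× PBS with 1% milk, 0.2 mg/ml BSA, 0.5% salmon testes DNA and 0.03% Triton X-100. An Alexa488 anti-GST antibody detected bound protein, and the array was scanned at 488 nm. Binding intensity is taken as the highest Masliner-normalised natural-log median intensity across replicate spots of either probe orientation.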

Compared with “AAGAAACCATAATATGCATGCACATATTAATAAATA [TGCATGCA_site693]”, “TTATAATTTTAATGTGCACACAATTAAAATATTATA [CACACA_site5172]” is higher in “gcPBM binding intensity (ln)” value: 9.2 for the first, 10.2 for the second.

Going from “TGTAAGAAATTGAGCGCACACATACATCTGTGGGAT [CACACA_site4945]” to “TATTGACAAAAAAAAAAAAGGTAAAAAAGAAAGAAA [GTGCAC_negctrl_site418]”, the “gcPBM binding intensity (ln)” value falls from 7 to 6.28.

Going from “TTTTGTTTATGTGTGCATTATATTATATTTTTTATT [TGCATGCA_negctrl_site146]” to “TATAAATAAATATACACACACACATATAAATATGTA [CACACA_site6504]”, the “gcPBM binding intensity (ln)” value falls from 10.2 to 6.76.

First: ATTATATATAAGAAGAGTACTGAATATGTGCAATAT [XGTACX_site4471]
Second: TTATAGAAAATGGAATAGAATGGAATGGAAGAAATA [CACACA_negctrl_site1086]
The “gcPBM binding intensity (ln)” value of the first is higher: 11.2 for the first, 7.13 for the second.

Going from “TATATACACCCACATACACACAAATAAAAAAACACC [CACACA_site3414]” to “GACATTGATACCAGTAGTACCTATAGATGTTTGTTT [XGTACX_site5736]”, the “gcPBM binding intensity (ln)” value falls from 7.5 to 6.34.

First: TTATGGAATAATCACGTACACACAAGAAAAAAAAAA [CACACA_site526]
Second: ATATAAGGATTAATATGTACATATATATATATATTT [XGTACX_site1390]
The “gcPBM binding intensity (ln)” value of the first is higher: 6.59 for the first, 6.48 for the second.

Compared with “TTTGTATATTATTTTAGTACATAACATTGAAGATAT [XGTACX_site6680]”, “TATTTTGAAACTAAAAGACATAGAGAAAACAAAAAA [CACACA_negctrl_site1306]” is higher in “gcPBM binding intensity (ln)” value: 6.31 for the first, 6.56 for the second.

Going from “ATGTTGCACAGTGGAAGAATTAAAAATAAATAAATA [XGTACX_negctrl_site581]” to “GTGGAACGTATATTTTCACACACTCTCAAAAGTACA [CACACA_site8722]”, the “gcPBM binding intensity (ln)” value falls from 9.91 to 6.42.

Going from “AAATAATGTTTGAATTGTACACATATTTGTGTTTCT [XGTACX_site4603]” to “ATGAACATATCAATTCTCAAAATAGGATGAGAGCAT [CACACA_negctrl_site230]”, the “gcPBM binding intensity (ln)” value rises from 6.34 to 6.61.

Going from “AATTTTTGTATTTTTAGTACTTAATTTCAAAATAAC [XGTACX_site4234]” to “AATATTATAAATGTCACACATATATTCAAATATATA [CACACA_site4736]”, the “gcPBM binding intensity (ln)” value rises from 6.29 to 6.34.

Compared with “GTGGAACATATGAACTCACACACATTTTCACTTAAA [CACACA_site3683]”, “GAATGGACGTTAGGGGGTACGTATAAAATTTATCAA [XGTACX_site683]” is higher in “gcPBM binding intensity (ln)” value: 6.38 for the first, 7.4 for the second.

Going from “TTTGTGATATTATATTGTACCCTATATTTATTATAA [XGTACX_site4240]” to “TTTATTGACAATTTATGTACATATAATTGAAAAATA [XGTACX_site6634]”, the “gcPBM binding intensity (ln)” value rises from 6.5 to 6.51.

Compared with “GTTCAATTTTTAGGAAGTACAAAAAAAAAAAAGAAA [XGTACX_site7286]”, “ATGGTACATACATACACACACACAAAAAAAAAAAAA [CACACA_site1578]” is higher in “gcPBM binding intensity (ln)” value: 6.12 for the first, 6.41 for the second.

Compared with “TATATTTGTATTGTTTGTACTTATATGAATTTATAT [XGTACX_site4228]”, “TATATTAGTGTTGACACACACAAAAAAAAAAAAAAA [CACACA_site1396]” is lower in “gcPBM binding intensity (ln)” value: 6.4 for the first, 6.09 for the second.

Compared with “CAAACCTATATACAAACATGCAATCCACATATTGGT [TGCATGCA_site756]”, “ATTTGTTACGGACATGCATGCGAATCAGGGTATATA [TGCATGCA_site154]” is higher in “gcPBM binding intensity (ln)” value: 6.41 for the first, 7.34 for the second.

Going from “TATAAAAAAAAAAAATATATATATATATAAATATAA [TGCATGCA_negctrl_site367]” to “TAAAAATATTTTCATTGTACATATATATAAATATAT [XGTACX_site1123]”, the “gcPBM binding intensity (ln)” value rises from 6.34 to 6.46.

First: TAAGAAAAAAAAAAAAAAAAAAAAAAAAAAAAAAAA [CACACA_negctrl_site760]
Second: TAATGAAATTGTAGTAGTACCTTCTTATAAATAAAA [XGTACX_site6747]
The “gcPBM binding intensity (ln)” value of the first is higher: 6.15 for the first, 5.97 for the second.

Going from “TCACCTATTTTTAACTGTACTGAAATGATATATATA [XGTACX_site1366]” to “TTGAGGAAATAACAGTGTACAAACAAATTATTACCA [XGTACX_site7082]”, the “gcPBM binding intensity (ln)” value falls from 6.72 to 6.18.

First: TACATATATATATATATATATATATATATCATTATG [XGTACX_negctrl_site293]
Second: CTTATATTAATTATTACACACATATTTATAAATGCA [CACACA_site6501]
The “gcPBM binding intensity (ln)” value of the first is higher: 7.58 for the first, 6.66 for the second.

Going from “TTTTCCATAAGAATTACACACAGAAAGGATAAGTAT [CACACA_site105]” to “ATAGAAATATTATATTGTACGAACAGTTATTAACAA [XGTACX_site2137]”, the “gcPBM binding intensity (ln)” value falls from 6.93 to 6.56.

Going from “ACATGTAAATGGAAAAGTACTAATAACTTGTATTGG [XGTACX_site5181]” to “ATTATTTGTTTAAATTCACACACGTATATATATTTA [CACACA_site3050]”, the “gcPBM binding intensity (ln)” value rises from 6.39 to 6.68.

Compared with “ATATATAAATATATTACACACTTTTTCTTTTTTTTT [CACACA_site7332]”, “TAATTATTAAAACATTGTACATTATTATAAACAATT [XGTACX_site4489]” is lower in “gcPBM binding intensity (ln)” value: 6.54 for the first, 6.33 for the second.
